Measured values taken from patent publication US10858425B2, “Pan-ELR+ CXC chemokine antibodies” (Eli Lilly and Company, priority 2013, dated 2020).

How the values were obtained:
[1] = system: 786-0 renal cell carcinoma (RCC) cells; assay: 786-0 clear cell renal cell xenograft model; type: in vivo, athymic nude female mice; details: addition of Antibody 1 (20 mg/kg once a week) to sunitinib treatment (10 mg/kg two times a day); p<0.0001
Protocol: 786-0 renal cell carcinoma (RCC) cells are mixed 1:1 with matrigel and implanted subcutaneously in the right rear flank of athymic nude female mice at 3.0×10^6 cells per injection. 786-0 xenograft-bearing mice having tumor volumes that reached 100 mm^3 were orally gavaged with 10 mg/kg of sunitinib two times a day under a continuous dosing regimen until the mice started progressing with tumor growth even under sunitinib treatment like control-treated mice (IgG4 and 10% vehicle). Mice that were progressing with tumor growth on sunitinib therapy were randomly divided into 2 groups. One group receives sunitinib at 10 mg/kg two times a day plus control IgG4 antibody at 20 mg/kg once a week. The other group receives suninitib at 10 mg/kg two times a day plus Antibody 1 at 20 mg/kg once a week.

[2] = system: SKOV3-Luc ovarian cancer cells; assay: SKOV3-Luc ovarian cancer xenograft model; type: in vivo, athymic nude female mice
Protocol: SKOV3-Luc is a human ovary cancer cell line that expresses firefly luciferase gene. SKOV3-Luc cells are often used in vivo to establish human ovarian adenocarcinoma tumor growth.
SKOV3-Luc ovarian cancer cells were mixed 1:1 with matrigel and implanted subcutaneously in the right rear flank of athymic nude female mice at 3.0×10^6 cells per injection. Mice were randomized into 4 groups at baseline according to tumor volume after the xenografts were grown to an average tumor volume of 200 mm^3. Mice received either control IgG4 antibody (2.5 mg/kg once a week), cisplatin (2.5 mg/kg once a week), Antibody 1 (20 mg/kg once a week), or a combination of cisplatin (2.5 mg/kg once a week) and Antibody 1 (20 mg/kg once a week) by intraperitoneal injection.

[3] = molecular target: T1, human CXCL2 (Gro Beta) (Homo sapiens, UniProt P19875); assay: Biacore surface plasmon resonance binding to human CXCL2; details: 25° C.
T1 sequence (P19875 35-107): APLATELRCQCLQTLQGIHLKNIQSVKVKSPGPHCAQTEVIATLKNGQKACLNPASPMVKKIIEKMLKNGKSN
Protocol: Biacore 2000 instrument and Biacore 2000 Evaluation Software Version 4.1 are used for surface plasmon resonance analysis. A […] chip is prepared using manufacturer's EDC/NHS amine coupling method. Briefly, the surfaces of all four flow cells are activated by injecting a 1:1 mixture of EDC/NHS for 7 minutes at 10 μL/min. Protein A is diluted to 100 μg/mL in 10 mM acetate, pH 4.5 buffer, and immobilized to achieve approximately 10,000 RU onto all 4 flow cells by 7-minute injection at a flow rate of 10 μL/minute. Unreacted sites are blocked with a 7-minute injection of ethanolamine at 10 μL/minute. Two injections of glycine (pH 1.5) for 30 seconds at 10 μL/minute are used to remove any non-covalently associated protein. Running buffer is HBS-EP+.
Antibody 1 or Antibody 2 is diluted to 2 μg/mL in running buffer, and approximately 400-600 RU is captured in flow cell (Fc). Ligands are diluted from 100 μg/mL to 50 nM in running buffer and then two-fold serially diluted in running buffer to 3.125 nM. Duplicate injections of each ligand concentration are injected at 100 μL/min for 150 seconds followed by a dissociation phase. […] The on-rate (kon) and off-rate (koff) for each ligand are evaluated using a “1:1 (mass transfer) Binding” binding model. The affinity […] is calculated from the binding kinetics according to the relationship: KD=koff/kon.

kon [3]: 7.73 ± 0.86 (1/Ms) × 10^5
B1: Antibody 1: antibody with heavy chain SEQ ID NO: 1 and light chain SEQ ID NO: 3, expressed in NSO cells (antibody)
heavy: QVQLVQSGAEVKKPGASVKVSCKASGYEFTSYWIHWVRQAPGQGLEWMGNISPNSGSANYNEKFKSRVTMTRDTSTSTVYMELSSLRSEDTAVYYCAREGPYSYYPSREYYGSDLWGQGTLVTVSSASTKGPSVFPLAPCSRSTSESTAALGCLVKDYFPEPVTVSWNSGALTSGVHTFPAVLQSSGLYSLSSVVTVPSSSLGTKTYTCNVDHKPSNTKVDKRV[human IgG4 Fc with S228P (EU numbers) not spelt out]
light: EIVLTQSPATLSLSPGERATLSCRASQSISNNLHWYQQKPGQAPRLLIYYTSRSVSGIPARFSGSGSGTDFTLTISSLEPEDFAVYYCGQNNEWPEVFGGGTKVEIKRTVAAPSVFIFPPSDEQLKSGTASVVCLLNNFYPREAKVQWKVDNALQSGNSQESVTEQDSKDSTYSLSSTLTLSKADYEKHKVYACEVTHQGLSSPVTKSFNRGEC
tumor growth over time [1]: reduced tumor growth significantly
Average Tumor Volume ([2]; Day 14): 109.35 mm^3
Average Tumor Volume ([2]; Day 19): 173.95 mm^3
Average Tumor Volume ([2]; Day 22): 234.58 mm^3
Average Tumor Volume ([2]; Day 26): 364.42 mm^3
Average Tumor Volume ([2]; Day 32): 739.26 mm^3
Average Tumor Volume ([2]; Day 35): 821.83 mm^3
Average Tumor Volume ([2]; Day 40): 1026.68 mm^3
Average Tumor Volume ([2]; Day 43): 1098.72 mm^3
